In all, about 39,000 compounds went through this assay and about 220 (0.56%) showed activity. The list shows a part of the results.
test system: Escherichia coli K-12 BW25113; assay: relative growth (OD600 normalised to plate interquartile mean) (fraction); higher = less growth inhibition, active = 0.2 or less; settings: 50 µM; LB; incubation time: overnight (16-24 h)
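Note: static incubation at 37 °C against the wild-type strain, values averaged over two biological replicates.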

Compound	relative growth
C[C@@H]1CN([C@H](C)CO)C(=O)c2cccc(NC(=O)c3cnccn3)c2O[C@H]1CN(C)C(=O)Nc1ccc2c(c1)OCO2	inactive: 1.01
Cc1noc(C)c1S(=O)(=O)Nc1cccc2c1O[C@@H](CN(C)C(=O)NC(C)C)[C@@H](C)CN([C@@H](C)CO)C2=O	inactive: 1.02
C[C@@H]1CN([C@H](C)CO)C(=O)c2cc(NC(=O)Cn3cnnn3)ccc2O[C@@H]1CN(C)Cc1ccc(C(F)(F)F)cc1	inactive: 0.996
CO[C@H]1C[C@@H](O[C@@H](O)[C@@H](O)[C@@H](O)[C@@H](O)[C@@H](O)CO)c2c(cc3cc(C)oc(=O)c3c2O)OC1=O	inactive: 0.997
O=C(CCCCCCC(=O)Nc1ccc([C@H]2O[C@@H](CSc3ccccn3)C[C@H](c3ccccc3)O2)cc1)NO	inactive: 0.963
C[C@@H]1CN([C@H](C)CO)C(=O)c2cc(C#Cc3ccccc3F)cnc2O[C@@H]1CN(C)C(=O)C1CCOCC1	inactive: 1.01
Cc1ccc([C@@H](N)c2ccncc2)cc1	inactive: 0.982
COc1ccc(S(=O)(=O)Nc2ccc3c(c2)CC(=O)N([C@@H](C)CO)C[C@@H](C)[C@@H](CN(C)Cc2ccc(Oc4ccccc4)cc2)O3)cc1	inactive: 0.994
CO[C@@H](C(=O)N(C)C[C@@H]1OCc2ccccc2-c2c(n(C)c3ccccc23)C(=O)N([C@@H](C)CO)C[C@H]1C)c1ccccc1	inactive: 1.01
Cc1noc(C)c1NC(=O)N(C)C[C@@H]1Oc2ccc(NC(=O)CCN3CCOCC3)cc2C(=O)N([C@@H](C)CO)C[C@H]1C	inactive: 1.04
COc1ccc2c3c([nH]c2c1)[C@H](CO)N(C[C@]13CN(CC2CCOCC2)C1)C(=O)Nc1c(noc1C)C	inactive: 1.02
C[C@H](CO)N1C[C@H](C)[C@@H](CN(C)C(=O)Nc2ccc3c(c2)OCO3)Oc2ccc(NC(=O)CCN3CCOCC3)cc2CC1=O	inactive: 0.981
Cc1cc(C(=O)NCc2cccn2C)nn1C	inactive: 1.02
C[C@@H]1CN([C@@H](C)CO)C(=O)c2cc(NC(=O)Nc3cccc4ccccc34)ccc2O[C@@H](C)CCCCO[C@@H]1CN(C)S(=O)(=O)c1ccc(F)cc1	inactive: 1.01
N#C/C(=C\c1cccs1)c1csc2ccc(Cl)cc12	inactive: 0.994
Nc1cccc(=O)[nH]1	inactive: 1.03
C[C@@H]1CCCCO[C@H](CN(C)S(=O)(=O)c2ccc(Cl)cc2)[C@@H](C)CN([C@H](C)CO)C(=O)c2cc(NC(=O)Nc3ccc4c(c3)OCO4)ccc2O1	inactive: 1.02
C[C@@H]1CN([C@H](C)CO)C(=O)c2cccc(NC(=O)C3CC3)c2O[C@H]1CN(C)S(=O)(=O)c1cccs1	inactive: 1.01
Cc1cc(C(C)(C)C)cc(C)c1CC1=NCCN1.Cl	inactive: 1.04

Compound	relative growth
C[C@H]1CCCCO[C@H](CN(C)C(=O)C2CCCCC2)[C@@H](C)CN([C@@H](C)CO)C(=O)c2cc(NC(=O)Nc3ccc4c(c3)OCO4)ccc2O1	inactive: 1.02
C[C@@H]1CN([C@@H](C)CO)C(=O)c2cc(NC(=O)Nc3cccc4ccccc34)ccc2O[C@H]1CN(C)Cc1ccc(C(=O)O)cc1	inactive: 0.995
C[C@@H]1CCCCO[C@H](CN(C)C(=O)Nc2ccc(C(F)(F)F)cc2)[C@H](C)CN([C@H](C)CO)C(=O)c2cc(NS(C)(=O)=O)ccc2O1	inactive: 0.968
C[C@@H]1CN([C@@H](C)CO)C(=O)c2cc(NS(=O)(=O)c3ccc(Cl)cc3)ccc2O[C@H]1CN(C)Cc1ccc(Oc2ccccc2)cc1	inactive: 1.02
Cc1ccc(S(=O)(=O)N(C)C[C@H]2Oc3ccc(NS(=O)(=O)c4cccs4)cc3CC(=O)N([C@@H](C)CO)C[C@@H]2C)cc1	inactive: 0.998
CC(C)NC(=O)N(C)C[C@@H]1Oc2c(NS(=O)(=O)c3ccc(F)cc3)cccc2C(=O)N([C@@H](C)CO)C[C@@H]1C	inactive: 0.987
C[C@H](CO)N1C[C@H](C)[C@@H](CN(C)C(=O)Nc2ccc(F)cc2)OCCCC[C@H](C)Oc2ccc(NC(=O)Nc3ccc(F)cc3)cc2C1=O	inactive: 1.06
CC1CC2C3CC(F)C4=CC(=O)C=CC4(C)C3(F)C(O)CC2(C)C1(O)C(=O)COC(=O)C(C)(C)C (stereo not drawn)	inactive: 1.13
CO[C@@H]1CN(C)C(=O)c2cc(NS(=O)(=O)c3cn(C)cn3)ccc2OC[C@H](C)N(CC2CC2)C[C@H]1C	inactive: 1.01
C[C@@H]1CN([C@H](C)CO)C(=O)c2cccc(NC(=O)NC3CCCCC3)c2O[C@@H]1CN(C)S(C)(=O)=O	inactive: 0.979
O=C(Nc1ccc2c(c1)[C@@H]1C[C@@H](CC(=O)N3CCc4ccccc4C3)O[C@H](CO)[C@@H]1O2)C1CCOCC1	inactive: 1
COc1ccc(S(=O)(=O)Nc2ccc3c(c2)C(=O)N([C@H](C)CO)C[C@@H](C)[C@@H](CN(C)C(=O)Nc2ccccc2)OCCCC[C@@H](C)O3)cc1	inactive: 0.983
C[C@@H]1CN([C@@H](C)CO)C(=O)Cc2cc(NC(=O)c3ccncc3)ccc2O[C@@H]1CN(C)S(=O)(=O)c1cn(C)cn1	inactive: 0.975
C[C@H](CO)N1C[C@H](C)[C@@H](CN(C)C(=O)Nc2ccc(C(F)(F)F)cc2)Oc2ncc(-c3ccc(C#N)cc3)cc2C1=O	inactive: 0.999
CC(C)NC(=O)N(C)C[C@H]1Oc2ccc(NC(=O)Cn3cnnn3)cc2C(=O)N([C@@H](C)CO)C[C@H]1C	inactive: 0.996
C[C@@H]1CN([C@H](C)CO)C(=O)Cc2cc(NC(=O)Nc3ccc(C(F)(F)F)cc3)ccc2O[C@H]1CN(C)Cc1ccc2c(c1)OCO2	inactive: 1.01
CC(=O)c1ccc(S(=O)(=O)N2[C@@H]3CC[C@@H](C3)[C@H]2c2nc3cccc(OCc4ccccc4)c3[nH]2)cc1	inactive: 1.03
COc1ccc2c3c(n(c2c1)C)[C@@H](CO)N(C[C@]13CCN(CC1)Cc1ccccc1F)C(=O)Nc1ccc(cc1)F	inactive: 1.01
CNC(=O)C[C@H]1CC[C@@H]2[C@H](COC[C@H](O)CN2C(=O)c2ccccn2)O1	inactive: 1
